# Assay results: the supplement of paper PMC4967469
# Legend:
# Assay in all cases: Viability of human cancer cell lines after 72 h of drug (GDSC screen)
# [1] = compound: COc1cc2nccc(Oc3ccc(NC(=O)Nc4cc(C)on4)c(Cl)c3)c2cc1OC [AV-951]; conditions: top dose 0.128 µM; top dose inferred
# Description: (§1)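 Human cancer cell lines in 384-well plates, medium with 10% serum, drug for 72 h over a 256-fold dose range (nine 2-fold or five 4-fold steps up to the top dose). Adherent lines were fixed and stained with the nucleic acid dye Syto60, suspension lines read with resazurin; signal relative to control wells, capped at 0 and 100%. One two-parameter sigmoid per drug and line, fitted in a mixed model over all curves with the slope shared within a line.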
# [2] = compound: CCNC(=O)C[C@@H]1N=C(c2ccc(Cl)cc2)c2cc(OC)ccc2-n2c(C)nnc21 [I-BET-762]; conditions: top dose 20 µM; top dose inferred
# Description: as §1
# [3] = compound: CC(=O)Nc1cccc(-n2c(=O)n(C3CC3)c(=O)c3c(Nc4ccc(I)cc4F)n(C)c(=O)c(C)c32)c1 [Trametinib]; conditions: top dose 1 µM
# Description: as §1
# [4] = compound: O=C(NC(COc1ccc2[nH]c(=O)[nH]c2c1)c1ccccc1)c1cccn(Cc2ccc(F)c(F)c2)c1=O [KIN001-244]; conditions: top dose 20 µM; top dose inferred
# Description: as §1
# [5] = compound: CCN1CCN(Cc2ccc(NC(=O)c3ccc(C)c(/C=C/c4cnc5[nH]ccc5c4OC)c3)cc2C(F)(F)F)CC1 [HG-6-64-1]; conditions: top dose 5.12 µM; top dose inferred
# Description: as §1
# [6] = compound: CCc1cncnc1N1CCN(Cc2nc3ccc(C(F)(F)F)cc3[nH]2)CC1 [PF-4708671]; conditions: top dose 10 µM; top dose inferred
# Description: as §1
Cell Line,AUC [1],IC50 [1],AUC [2],IC50 [2],AUC [3],IC50 [3],AUC [4],IC50 [4],AUC [5],IC50 [5],AUC [6],IC50 [6]
"LN-229 (glioma, adherent)",0.987,> 128 nM,0.952,> 20 µM,0.466,50.6 nM,0.955,> 20 µM,0.818,2870 nM,0.973,> 10 µM
"LNZTA3WT4 (glioma, adherent)",0.987,> 128 nM,0.983,> 20 µM,0.724,265 nM,0.916,> 20 µM,0.795,2330 nM,0.989,> 10 µM
"LOU-NH91 (lung squamous cell carcinoma, adherent)",0.984,> 128 nM,0.959,> 20 µM,0.792,500 nM,0.958,> 20 µM,0.749,1790 nM,0.959,> 10 µM
"LS-180 (large intestine, adherent)",0.985,> 128 nM,0.936,> 20 µM,0.432,39.7 nM,0.908,> 20 µM,0.71,1380 nM,0.985,> 10 µM
"LU-99A (large cell lung carcinoma, adherent)",0.987,> 128 nM,0.984,> 20 µM,0.619,132 nM,0.928,> 20 µM,0.754,1710 nM,0.984,> 10 µM
"LU-135 (small cell lung carcinoma, suspension)",0.98,> 128 nM,0.843,10.7 µM,0.992,> 1000 nM,0.87,13.5 µM,0.857,3090 nM,0.991,> 10 µM
"M14 (melanoma, adherent)",0.979,> 128 nM,0.855,17.3 µM,0.084,< 3.91 nM,0.832,13.7 µM,0.844,3970 nM,0.955,> 10 µM
"M059J (glioma, adherent)",0.974,> 128 nM,0.787,9.54 µM,0.892,> 1000 nM,0.831,14.1 µM,0.637,790 nM,0.955,> 10 µM
"MC-IXC (neuroblastoma, adherent)",0.996,> 128 nM,0.994,> 20 µM,0.996,> 1000 nM,0.911,14.6 µM,0.593,538 nM,0.987,> 10 µM
"MCF7 (breast, adherent)",0.986,> 128 nM,0.986,> 20 µM,0.982,> 1000 nM,0.972,> 20 µM,0.8,2590 nM,0.953,> 10 µM
"MDA-MB-157 (breast, adherent)",0.97,> 128 nM,0.973,> 20 µM,0.987,> 1000 nM,0.97,> 20 µM,0.807,2700 nM,0.961,> 10 µM
"MDA-MB-175-VII (breast, adherent)",0.988,> 128 nM,0.982,> 20 µM,0.782,–,0.92,> 20 µM,0.946,> 5120 nM,0.911,> 10 µM
"MDA-MB-231 (breast, adherent)",0.982,> 128 nM,0.972,> 20 µM,0.495,60.7 nM,0.968,> 20 µM,0.725,1450 nM,0.981,> 10 µM
"MDA-MB-361 (breast, adherent)",0.986,> 128 nM,0.84,13.6 µM,0.964,> 1000 nM,0.921,> 20 µM,0.865,4450 nM,0.97,> 10 µM
"MDA-MB-436 (breast, adherent)",0.983,> 128 nM,0.952,> 20 µM,0.776,507 nM,0.856,> 20 µM,0.865,> 5120 nM,0.971,> 10 µM
"MDA-MB-468 (breast, adherent)",0.988,> 128 nM,0.965,> 20 µM,0.892,> 1000 nM,0.83,11.9 µM,0.945,> 5120 nM,0.972,> 10 µM
"ME-180 (cervix, adherent)",0.983,> 128 nM,0.941,> 20 µM,0.727,286 nM,0.809,11 µM,0.614,669 nM,0.969,> 10 µM
"MEL-JUSO (melanoma, adherent)",0.96,> 128 nM,0.974,> 20 µM,0.268,12.4 nM,0.788,9.91 µM,0.58,544 nM,0.909,> 10 µM
"MES-SA (uterus, adherent)",0.992,> 128 nM,0.991,> 20 µM,0.968,> 1000 nM,0.99,> 20 µM,0.591,545 nM,0.992,> 10 µM
"MFE-280 (endometrium, adherent)",0.962,> 128 nM,0.854,> 20 µM,0.947,> 1000 nM,0.734,7.09 µM,0.616,727 nM,0.974,> 10 µM
"MFE-296 (endometrium, adherent)",0.985,> 128 nM,0.972,> 20 µM,0.814,596 nM,0.968,> 20 µM,0.345,114 nM,0.978,> 10 µM
"MFE-319 (endometrium, adherent)",0.989,> 128 nM,0.987,> 20 µM,0.744,304 nM,0.921,> 20 µM,0.643,786 nM,0.935,> 10 µM

# The IC50 comes from the fitted curve, where viability falls to half of the control; where the fit passes the top or lowest dose, that dose stands as a limit. For AUC the same curve is integrated over the 256-fold range of doses and scaled to a fraction; it is 1 without any effect and falls as sensitivity rises. For some assays here: A top dose marked as inferred was derived from the fitted curves, not read from the paper.
